The values below come from PubChem BioAssay AID463173 (ICCB-Longwood Screening Facility, Harvard Medical School, 2010).

Each structure is given as a SMILES string. The whole screen tested about 52,000 compounds, of which about 4,300 (8.3%) were called active. Cut-off read from the data, not from the text of the source: active = survival mostly below about 52% (no sharp cut-off); inactive = mostly above about 56%. Some of the results follow.

The test system of this assay is DeltatarO mutant. The assay is described as follows: S. aureus survival, RN4220 and DeltatarO strains – OD600, teichoic acid synthesis inhibitors, primary screen (AID 463173). The following applies: S. aureus RN4220 wild type/DeltatarO growth, OD600, 18 h, active compounds read low, screened at 18.75 µg/mL (by protocol).
With `COc1ccc(OC)c(CCNC(=O)Cn2nc(C)n3c(cc4sccc43)c2=O)c1`, the survival is inactive: 99%.
For `CCc1c(C)sc2c1CCN(C(=O)Nc1cc(C)ccc1C)C2c1ccc(OC)cc1` (stereo unspecified), the survival was inactive: 83%.
Turning to `Cc1nc(-c2cccc(S(=O)(=O)N3CCC(C(=O)NCc4ccccc4Cl)CC3)c2)no1`, the survival is inactive: 82%.
Take `Cc1cc(C)cc(NC(=O)c2cc(S(=O)(=O)N3CCCC3)ccc2F)c1`: the survival was inactive: 92%.
On to `Cn1nc(-c2ccccc2F)c2cc(C(=O)NCc3cccc(Cl)c3)sc21`, for which the survival is active: 41%.
For the compound `Cc1ccc(C)c(NC(=O)c2nnn(Cc3ccc(F)cc3Cl)c2N)c1`, the survival is inactive: 71%.
For the compound `Cc1cccc(CSc2nnc(CCCCCN)o2)c1`, the survival is inactive: 75%.
Turning to `COc1ccc(CCNC(=O)CCS(=O)(=O)c2cc3c(cc2Cl)NC(=O)CO3)cc1OC`, the survival is inactive: 90%.
Turning to `O=C(COc1ccccc1)Nc1nnc(SCc2cc(=O)n3cc(Cl)ccc3n2)s1`, the survival was inactive: 90%.
Consider `CCc1nnc(SCC(=O)Nc2cccc(C(F)(F)F)c2)c2cc3oc(C)cc3n12`, for which the survival is inactive: 66%.
Take `COc1ccc(-c2noc(CSc3nnc(Cc4ccccc4)n3-c3cccc(C)c3)n2)cc1`: the survival is inactive: 69%.
On to `COc1ccc(/C=C/C(=O)Nc2ccc3nc4c(c(Nc5ccc(OC)c(OC)c5)c3c2)CCCC4)cc1`, for which the survival was inactive: 74%.
As to `CCCc1nn2cc(-c3ccc(C)c(C)c3)nc2s1`, the survival was inactive: 100%.
In the case of `CCOC(=O)Cc1c(C)nc2c(-c3ccc(Cl)cc3)c(C(F)(F)F)nn2c1C`, the survival was inactive: 63%.
Regarding `c1ccc2c(c1)ncc1nncn12`, the survival is inactive: 79%.
For the compound `CC1CCC(NC(=O)Cn2ncc3c4ccccc4n(Cc4ccc(F)cc4)c3c2=O)CC1` (stereo unspecified), the survival is inactive: 73%.
Turning to `O=c1[nH]c2ccc(NCc3ccc(-c4ccc(F)cc4)o3)cc2[nH]1`, the survival is inactive: 97%.
As for `Cc1ccc(Nc2ncc(C(=O)Nc3ccc(F)cc3F)c3ccccc23)cc1Cl`, the figure is active: 37%; as for `CC(=O)c1ccc(NC(=O)CSc2ccc3nnc(CCNS(=O)(=O)c4ccc(C)cc4)n3n2)cc1`, inactive: 67%.
`CCC1CCCCN1S(=O)(=O)c1cc2c(cc1C)NC(=O)CO2` (stereo unspecified): the survival is inactive: 105%.
As for `Cc1ccc(CN(C(=O)COc2ccc([N+](=O)[O-])cc2)c2ccccn2)o1`, the survival was active: 62%.
For `COc1ccc(CNC(=O)c2nn(C)c3c2CS(=O)(=O)c2ccccc2-3)cc1`, the survival was inactive: 69%.
Consider `CC(=O)c1cccc(NC(=O)C2CCN(S(=O)(=O)c3ccccc3)CC2)c1`, for which the survival was inactive: 56%.
For the compound `CC(=O)N1CCc2cc(S(=O)(=O)NC(CC(C)C)C(=O)NCCc3cccc(C)c3)ccc21` (stereo unspecified), the survival was inactive: 91%.
As for `CCOCCCNC(=O)c1ccc2c(=O)n(CCc3ccc(OC)c(OC)c3)c(=O)[nH]c2c1`, the figure is inactive: 78%.
With `CCOc1ccccc1CNC(=O)CSc1nnc(C)c2c(C)n(-c3ccccc3)nc12`, the survival is inactive: 83%.
For the compound `Cc1oc(-c2ccccc2Cl)nc1CS(=O)(=O)CC(=O)NC(C)c1ccccc1` (stereo unspecified), the survival was inactive: 63%.
Take `CCC(C(=O)Nc1ccccc1OC)n1c(C(=O)OC)cc2sc(Cl)cc21` (stereo unspecified): the survival was active: -6%.
In the case of `Cc1ccc2onc(CNC(=O)NCc3ccccc3)c2c1`, the survival was inactive: 86%.
Consider `CCc1ccc(OCC(=O)Nc2cc(-c3nc4cc(C)ccc4o3)ccc2C)cc1`, for which the survival is inactive: 65%.
Take `CC(=O)Nc1ccc(N2C(=O)CC(N3CCCCC3C)C2=O)cc1` (stereo unspecified): the survival is inactive: 95%.
Consider `CCCNC(=O)C1CCC(CNS(=O)(=O)c2ccc3c(c2)CC(C)N3C(C)=O)CC1` (stereo unspecified), for which the survival was inactive: 99%.
Turning to `CN(Cc1ccc(F)cc1)S(=O)(=O)c1nnc(NC(=O)c2ccccc2)s1`, the survival is inactive: 102%.
As for `CC(C)N(C(=O)CSc1nnc(-c2ccc3c(c2)OCO3)n1C)C(C)C`, the survival was inactive: 81%.
In the case of `Cc1ccc2oc(-c3cc(NC(=O)c4oc5ccccc5c4C)ccc3Cl)nc2c1` it was inactive: 62%.
Regarding `O=C(COc1cc2oc(=O)c3c(c2cc1Cl)CCC3)N1CCCC1`, the survival is inactive: 65%.
In the case of `Cc1ccc2oc(=O)n(Cc3ccccc3Cl)c2c1` it was active: -3%; in that of `CCOC(=O)c1c(C)[nH]c(C)c1S(=O)(=O)N1CCC(C(=O)Nc2ccc(C)c(N(C)C)c2)CC1`, inactive: 84%.
On to `CC(C)(C)OC(=O)N1CCC(c2c(C(=O)N3CCN(Cc4ccccc4)CC3)cnn2-c2ccc(Cl)cc2)CC1`, for which the survival was inactive: 82%.
Consider `Cn1cc(C(=O)NCCc2ccccc2)c(=O)c2cc(S(=O)(=O)N3CCCCC3)ccc21`, for which the survival was inactive: 66%.
Turning to `CCc1ccc(N2C(=O)CN(S(=O)(=O)CC)CC2(C)C(=O)NC2CCCCC2)cc1` (stereo unspecified), the survival is inactive: 84%.
Regarding `COc1ccc(-c2nc3n(c2NC(C)(C)C)CCN(C(=O)Cc2ccccc2F)C3)cc1`, the survival is inactive: 88%.
On to `Cc1cc(-c2ccc(C)c(S(=O)(=O)NCc3cccs3)c2)on1`, for which the survival is inactive: 72%.
Take `CCOc1ccc(Nc2ncnc3scc(-c4ccc(OC)cc4)c23)cc1`: the survival is inactive: 98%.
Take `Cc1ccc(C(=O)NCc2ccccc2)cc1NC(=O)c1nsc2ccccc12`: the survival was inactive: 84%.
In the case of `O=C1CCC(=O)c2oc3ccccc3c2N1` it was inactive: 89%.
For `Cc1c(NC(=O)CN2C(=O)c3ccccc3C2=O)c(=O)n(-c2ccccc2)n1C`, the survival was inactive: 94%.
As for `CCC(c1nnnn1CCOC)N(Cc1cc2ccc(OC)cc2[nH]c1=O)C1CCCC1` (stereo unspecified), the figure is inactive: 92%; as for `CCS(=O)(=O)c1ncc(Cl)c(C(=O)NCc2ccccc2)n1`, inactive: 50%; as for `O=C(CNC(=O)c1ccccc1)OCc1cc(=O)n2nc(C3CC3)sc2n1`, inactive: 67%.
For the compound `Cc1ccc(Nc2c(-c3ccc(C)o3)nc3cccc(C)n23)cc1`, the survival is inactive: 20%.
Take `CCC1CCCCN1C(=O)CCS(=O)(=O)c1cc2c(cc1C)NC(=O)CO2` (stereo unspecified): the survival is inactive: 81%.
In the case of `O=c1c2oc3ccccc3c2n(Cc2ccc(Cl)cc2)c(=O)n1Cc1ccccc1` it was inactive: 108%; in that of `COC(C(=O)Nc1ccc2c(c1)OCCO2)c1ccccc1` (stereo unspecified), inactive: 87%.
Turning to `CCC(=O)Oc1ccc2c(c1)nc(C)n2CC`, the survival is inactive: 76%.
With `COCCn1nnnc1C(CC(C)C)N1CCN(c2cc(Cl)ccc2C)CC1` (stereo unspecified), the survival is inactive: 78%.
As for `CCn1cc2nc(SCc3cccc(C(F)(F)F)c3)n(Cc3ccc(OC)cc3)c(=O)c2n1`, the figure is inactive: 78%; as for `CC(=O)Nc1c(C)nn(-c2ccccc2)c1N1CCC(C(=O)NCc2ccc(F)cc2)CC1`, active: -1%; as for `COc1cc(Cl)c(C)cc1NC(=O)Cn1c(C)c2cnn(-c3ccccc3)c(=O)c2c1C`, inactive: 88%.
With `CC(=O)c1ccc(NC(=O)CSc2nnc(N)s2)cc1`, the survival was inactive: 69%.
With `O=C(O)CC1S/C(=N/N=C/c2ccccc2)NC1=O` (stereo unspecified), the survival was inactive: 84%.
Turning to `O=C(Nc1cccc(C(F)(F)F)c1)C1CCN(S(=O)(=O)c2cccs2)CC1`, the survival is active: 39%.
In the case of `Cc1ccc(S(=O)(=O)c2nc(-c3ccccc3F)oc2NCc2ccccc2)cc1` it was inactive: 68%.
As to `Cc1nc(N2CCOCC2)c2c(C(=O)N3CCN(c4ccccc4)CC3)c(C)oc2n1`, the survival is active: 37%.
In the case of `CC(=O)OC(C(=O)NCc1ccc(F)cc1)c1ccccn1` (stereo unspecified), the survival was inactive: 84%.
With `Cc1cc2c(cc3c(SCC(=O)Nc4ccc(Cl)cc4F)nncn32)o1`, the survival was active: 36%.
On to `CCOC(=O)c1cccc(NC(=O)NC(C)c2c(-n3cccc3)sc3c2CCN(C)C3)c1` (stereo unspecified), for which the survival is inactive: 119%.
Turning to `CCCNC(=O)CN1CCN(c2ccc(NC(=O)c3ccc(OC)cc3)cc2C(=O)O)CC1`, the survival is inactive: 94%.
As for `COc1ccc(CNC(=O)c2ccc(NC(=O)N3CCSc4ncccc43)cc2)cc1`, the survival was inactive: 84%.
Regarding `CC(C)NC(=O)c1ccccc1NC(=O)c1ccco1`, the survival was inactive: 73%.
With `Cc1ccccc1C(=O)N1CCC(C(=O)Nc2ccc(F)cc2F)CC1`, the survival was inactive: 67%.
As for `N#CCN(CC#N)S(=O)(=O)c1ccccc1`, the figure is inactive: 58%.
`CCOc1ccc(NC(=O)CCc2c(C)nc3c(-c4ccccc4)c(C)nn3c2C)cc1`: the survival is inactive: 94%.
Take `Cc1ccc(CNC(=O)CSC2=Nc3ccccc3N=C(c3ccc(F)cc3)C2)cc1`: the survival was inactive: 73%.
Take `COCCCN1C(=O)c2oc3ccccc3c(=O)c2C12C(=O)N(C)c1ccccc12` (stereo unspecified): the survival is inactive: 64%.
Regarding `O=C(COc1ccccc1F)Nc1ccc(OCc2cc(=O)n3ccccc3n2)cc1`, the survival was inactive: 118%.
Consider `COc1ccc(CC(=O)N2CCc3cc(OC)c(OC)cc3C2COc2ccc3c(C)cc(=O)oc3c2)cc1OC` (stereo unspecified), for which the survival is inactive: 65%.
As to `COc1ccccc1CNC(=O)CCNS(=O)(=O)c1ccc2c(c1)oc(=O)n2C`, the survival is inactive: 92%.
Turning to `O=C(COc1ccc(F)cc1)NCc1ccc2c(c1)CCN2C(=O)c1ccccc1`, the survival was inactive: 81%.
Consider `CNC(=O)c1ccc2c(c1)N(Cc1ccccc1Cl)C(=O)c1ccccc1S2`, for which the survival was inactive: 75%.
Turning to `O=C(CN(C1CCCCC1)S(=O)(=O)c1ccccc1)N1CCCCC1`, the survival is inactive: 104%.
With `O=C(Cn1c(=O)nc(-c2ccccc2F)c2cc(Cl)ccc21)NCCCc1ccccc1`, the survival was inactive: 83%.
Regarding `Cc1cccc(NC(=O)c2sc3nc(-c4cc5ccc(O)cc5oc4=O)[nH]c(=O)c3c2C)c1`, the survival was inactive: 46%.
Turning to `Cc1cc(C)cc(NC(=O)c2c(C)oc3nc(C)nc(N4CCCC4)c23)c1`, the survival is inactive: 55%.
In the case of `CC(C)CCn1c(=O)c2cccnc2n(CC(=O)Nc2ccccc2F)c1=O`, the survival was inactive: 82%.
Take `Cn1c2ccccc2c2cnn(CC(=O)Nc3ccccc3F)c(=O)c21`: the survival was inactive: 111%.
In the case of `CCOc1ccc(Nc2nn(-c3ccc(OC(F)(F)F)cc3)nc2C(C)=O)cc1`, the survival is inactive: 112%.
As for `CCc1ccc(OCC(=O)Nc2ncn[nH]2)c(Br)c1`, the figure is inactive: 88%.
For `COc1cccc(-c2noc(-c3cc(C(C)C)[nH]n3)n2)c1OC`, the survival is inactive: 73%.
In the case of `COc1cccc(Cn2c(-c3nonc3NC(C)=O)nc3ccccc32)c1`, the survival was inactive: 70%.
With `CCC1CN(C(=O)N2CCC(C(=O)N3CCN(c4ccccc4F)CC3)CC2)c2ccccc2O1` (stereo unspecified), the survival is inactive: 97%.
